In PubChem BioAssay AID720709 (National Center for Advancing Translational Sciences (NCATS), 2013):
The whole screen tested about 360,000 compounds, of which about 520 (0.14%) were called active. The shares of active, inactive and inconclusive entries below differ from those in the screen. Calls follow the shape of the dose curve; as a rule, active = well fitted inhibition curve with a large enough effect; inconclusive = small, poorly fitted or top-dose-only effect; inactive = no such curve, though single readings can be large or run the other way. Potencies of inconclusive entries are doubtful fits and often do not repeat.

target: Rap guanine nucleotide exchange factor 3 (Homo sapiens) (UniProt O95398); assay: qHTS for Antagonist of cAMP-regulated guanine nucleotide exchange factor 3 (EPAC1): primary screen; conditions: EPAC1 GEF assay, Rap1b-BODIPY-GDP exchange fluorescence; activity change, negative = inhibition: at 115 µM (top of the series); also: nearly all actives have a fitted effect of over 50% in size;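 as to activity change, negative = inhibition: plate controls were vehicle for no effect and positive control for full effect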
Sequence of UniProt O95398 (O95398 whole entry, looked up): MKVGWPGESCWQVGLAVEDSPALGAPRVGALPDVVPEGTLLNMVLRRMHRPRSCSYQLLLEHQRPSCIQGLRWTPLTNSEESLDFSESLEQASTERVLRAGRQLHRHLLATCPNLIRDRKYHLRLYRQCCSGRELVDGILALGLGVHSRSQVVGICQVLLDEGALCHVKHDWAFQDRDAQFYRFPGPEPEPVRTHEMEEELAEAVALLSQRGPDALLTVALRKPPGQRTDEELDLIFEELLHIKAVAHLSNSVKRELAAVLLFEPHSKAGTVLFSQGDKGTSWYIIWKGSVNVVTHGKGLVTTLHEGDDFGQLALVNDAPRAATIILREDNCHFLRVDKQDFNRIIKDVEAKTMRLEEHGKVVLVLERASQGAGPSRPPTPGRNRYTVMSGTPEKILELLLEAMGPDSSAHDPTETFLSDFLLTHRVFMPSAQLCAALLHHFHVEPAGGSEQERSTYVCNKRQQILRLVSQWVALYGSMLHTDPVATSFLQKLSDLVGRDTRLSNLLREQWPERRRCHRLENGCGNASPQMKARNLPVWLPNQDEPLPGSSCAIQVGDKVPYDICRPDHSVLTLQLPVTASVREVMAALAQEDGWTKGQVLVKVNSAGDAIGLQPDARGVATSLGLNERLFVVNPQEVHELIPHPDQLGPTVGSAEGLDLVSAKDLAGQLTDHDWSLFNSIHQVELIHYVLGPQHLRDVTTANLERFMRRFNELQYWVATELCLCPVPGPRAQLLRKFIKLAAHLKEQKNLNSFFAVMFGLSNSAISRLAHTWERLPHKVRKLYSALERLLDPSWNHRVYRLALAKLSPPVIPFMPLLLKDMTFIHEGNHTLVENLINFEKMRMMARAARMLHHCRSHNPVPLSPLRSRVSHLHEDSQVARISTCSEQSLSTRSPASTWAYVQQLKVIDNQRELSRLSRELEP
Potency is read from the fitted curve at half-maximal effect; tags tell the direction and shape of the fitted curve.

Activity change, negative = inhibition, inconclusive:
[N-]=[N+]=CC(=O)CC(c1ccccc1)N1C(=O)c2ccccc2C1=O (stereo not drawn) -16.3% [inhibitor]
CN1CCN(Cc2c(O)ccc3cc(-c4ccccn4)c(=O)oc23)CC1 -16.9% [inhibitor]

Activity change, negative = inhibition, inactive:
O=C(CSc1nc(-c2ccccc2)ns1)N1CCOCC1 -7.52%
Cc1cc([N+](=O)[O-])ccc1N1C(=O)c2ccc(C(=O)Nc3ccccc3C(=O)O)cc2C1=O -2.84%
CCN(CC)S(=O)(=O)c1ccc(C(=O)NCc2ccc3c(c2)cc(C)n3C)cc1 -11.2%
Cc1ccc(OCC(=O)N2CCN(C(=O)Cc3ccccc3)CC2)cc1 -5.65%
CCN1C(=O)[C@@H]2[C@@H]3CN(S(=O)(=O)c4ccc(C)cc4)[C@@H](c4ccccc4)[C@@H]3C(=O)C[C@@H]2C1=O -6.47%
Cc1ccnc(SCC(=O)c2cc3ccccc3o2)n1 -23%
CSc1ccc(CN2CCN(Cc3ccc([N+](=O)[O-])cc3)CC2)cc1 3.72%
COc1ccc(-c2cn3cccnc3n2)cc1NC(=O)C1CCCC1 -0.107%
COc1ccc(S(=O)(=O)/N=C2/NC(=O)/C(=C/c3ccco3)S2)cc1 -27.2%
COc1ccc(-c2csc(C(O)c3ccc(F)cc3)n2)cc1OC (stereo not drawn) -11.6%
Cc1csc2ncc(C(=O)NCc3ccco3)c(=O)n12 8.01%
COc1ccc2c(C)cc(SCC(=O)N3CCOCC3)nc2c1 1.1%
O=C(COc1cccc(Oc2ccccc2)c1)Nc1ccc(SC(F)F)cc1 0.0486%

Potency, inconclusive:
O=C(CN1C(=O)COc2ccc(Cl)cc21)N1CCCCC1 15.8 µM [inhibitor, full curve, poor fit]
COc1cc(OC)cc(C(=O)N2CCN(C(=O)c3ccc(-c4ccccc4)cc3)CC2)c1 14.1 µM [inhibitor, full curve, poor fit]
Oc1ccccc1/C=N/NC(=S)NC1CC2C=CC1C2 (stereo not drawn) 70.8 µM [inhibitor, partial curve]
Cc1ccc(-c2nc(CSCC(=O)N3CCN(C(=O)c4ccco4)CC3)c(C)o2)cc1 56.2 µM [inhibitor, partial curve]
COc1ccc(OC)c(NC(=O)c2nc(S(=O)(=O)Cc3ccccc3)ncc2Cl)c1 56.2 µM [inhibitor, partial curve]
Cc1ccc2oc(=O)c3cnn(CC(=O)N4CCCc5ccccc54)c3c2c1 100 µM [inhibitor, single point]
CCCCCCCN1C(Nc2ccccc2)=NC[C@@H]1CC(C)C 100 µM [inhibitor, single point]
C/C(=N\NC(=O)CSc1nc2ccccc2o1)c1ccc(O)cc1 100 µM [inhibitor, partial curve]
COc1ccc(C(C)NC(=O)C2CCCC2)cc1OC (stereo not drawn) 39.8 µM [inhibitor, single point]
CN(C(=O)CCc1nnc(Cc2ccc(-c3ccccc3)cc2)o1)C1CCOCC1 25.1 µM [inhibitor, full curve, poor fit]
O=C(NCCc1ccccc1)c1ccc(Cl)c(S(=O)(=O)N2CCOCC2)c1 28.2 µM [inhibitor, partial curve]
O=C(/C=C/c1ccc(Cl)cc1)N(Cc1ccccc1)c1ccccn1 89.1 µM [inhibitor, partial curve]
O=C(Cc1cccs1)NCCS(=O)(=O)N1CCN(c2cccc(Cl)c2)CC1 39.8 µM [inhibitor, single point]
Cc1cccc(NC(=O)c2nc[nH]c2C(=O)N[C@@H](CC(C)C)C(=O)OC(C)(C)C)c1 20 µM [inhibitor, full curve]
CNC(=S)N(CCCn1ccnc1)Cc1c(F)cccc1Cl 89.1 µM [inhibitor, single point]
O=C(Cc1csc(NC(=O)Nc2cccc(Cl)c2)n1)NC1CCCC1 100 µM [inhibitor, single point]
CCOC(=O)C(C)n1cnc2c(nnn2-c2cccc(Cl)c2)c1=O (stereo not drawn) 35.5 µM [inhibitor, single point]
CC1=CC=CC2=NC(=O)CC(C)(C(=O)N(CC(=O)NC(C)C)C3CCCC3)N12 (stereo not drawn) 35.5 µM [inhibitor, single point]
CN(CC(=O)Nc1ccccc1Cl)C(=O)c1ccc(Cl)c(S(=O)(=O)N2CCCCCC2)c1 89.1 µM [inhibitor, single point]
COc1ccc(N2C(=O)c3ccccc3C2=O)cc1 25.1 µM [inhibitor, full curve]
CCCCOc1ccc(C2CCC(C(C)=O)C(C)C2)cc1 (stereo not drawn) 56.2 µM [inhibitor, partial curve, poor fit]
Cc1ccccc1NC(=O)c1ccc(NS(=O)(=O)c2cc(C(C)(C)C)cc(C)c2C)cc1 56.2 µM [inhibitor, partial curve]
COc1ccc(-n2c(SCC(=O)C(C)(C)C)nc3c(sc(=S)n3-c3ccccc3)c2=O)c(OC)c1 44.7 µM [inhibitor, single point]
COc1ccc2oc(=O)c(-c3nnc(NCc4ccco4)s3)cc2c1 39.8 µM [inhibitor, partial curve]
CCOCC(=O)Nc1c(C(=O)Nc2ccc3c(c2)OCCO3)oc2ccccc12 2.82 µM [inhibitor, full curve, poor fit]
COc1cccc(CNC(=O)CSc2nc3ccc(C)cc3[nH]2)c1 89.1 µM [inhibitor, partial curve, poor fit]
CCN(CC)S(=O)(=O)c1cccc(NC(=O)COC(=O)/C=C/c2cccs2)c1 39.8 µM [inhibitor, partial curve]
CCc1ccc(NC(=O)NCc2cccnc2)cc1 79.4 µM [inhibitor, single point]
